Measurements from the supplement of paper PMC5919970.
Where a name gives a salt, the structure may show the parent alone. Over roughly 2,000 compounds, “fractional viability relative to vehicle” has its median near 0.91; the lowest 2% begin near 0.045. This is one part of the list.

System: TYKNU
Experiment: fractional viability relative to vehicle; TYKNU is a high-grade serous ovarian cancer line; higher = less growth inhibition
Conditions: 72 h
Outline: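 TYKNU control cells or lentiCRISPRv2 knockout derivatives were seeded at 500 cells per well into drug-stamped 384-well plates holding a ~2100-compound library at 2 or 10 μM, in duplicate. Cells were grown at 37 °C in 5% CO2 in RPMI 1640 with 10% FBS, and drug treatment lasted 72 h. Viability was read by Cell Titer Glo luminescence. Duplicate treatment wells were averaged and normalised to duplicate control wells from the same plate position.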

[1] = 2uM, genotype: DNM1L knockout (sgDNM1L #1)
[2] = 2uM, genotype: sgCTRLA1 (non-targeting control)
[3] = 10uM, genotype: DNM1L knockout (sgDNM1L #1)
[4] = 10uM, genotype: sgCTRLA1 (non-targeting control)

Row | SMILES | fractional viability [1] | fractional viability [2] | fractional viability [3] | fractional viability [4]
1 | CN(C)C(=O)Oc1cc(OC(=O)N(C)C)cc(C(O)CNC(C)(C)C)c1 (centres undefined) [Bambuterol HCl] | 0.866 | 0.949 | 0.742 | 0.907
2 | CCN(C)C(=O)Oc1cccc([C@H](C)N(C)C)c1 [Rivastigmine Tartrate] | 0.961 | 1.07 | 0.875 | 1
3 | CCC1(c2ccc(N)cc2)CCC(=O)NC1=O (centres undefined) [Aminoglutethimide] | 1.08 | 1.1 | 1.02 | 0.968
4 | C[C@@H]1O[C@@H](O[C@H]2C[C@@H](O)[C@]3(CO)[C@H]4[C@H](O)C[C@]5(C)[C@@H](C6=CC(=O)OC6)CC[C@]5(O)[C@@H]4CC[C@]3(O)C2)[C@H](O)[C@H](O)[C@H]1O [Ouabain] | 0.05 | 0.0369 | 0.0346 | 0.0311
5 | NCC(O)c1ccc(O)cc1 (racemic) [(+,-)-Octopamine HCl] | 1.06 | 1.1 | 0.781 | 1.15
6 | NC(=O)CN1CCCC1=O [Piracetam] | 1.25 | 1.06 | 0.956 | 0.98
7 | O=P1(NCCCl)OCCCN1CCCl (centres undefined) [Ifosfamide] | 1.04 | 1.03 | 0.935 | 0.974
8 | CC[C@@H]1/C=C/C=C/C[C@H](C)[C@H](O)[C@](C)(O)C(=O)[C@H](C)[C@@H](O)[C@H](C)C(=O)[C@H](C)[C@@H](O)[C@H](C)/C=C/C(=O)O[C@H]2[C@@H](C)[C@@H](CC1)O[C@@]1(CC[C@@H](C)[C@@H](C[C@H](C)O)O1)[C@@H]2C [Oligomycin A] | 0.691 | 0.555 | 0.422 | 0.413
9 | CC(C)(C)[C@]1(O)CC2OC(=O)CC23C(=O)OC2OC(=O)[C@H](O)C231 (some centres undefined) [Bilobalide] | 0.854 | 1.09 | 0.975 | 1.11
10 | Cc1cc(SCc2sc(-c3ccc(C(F)(F)F)c(F)c3)nc2C)ccc1OCC(=O)O | 0.782 | 1.02 | 0.769 | 0.768
11 | O=C(O[C@H]1C[N+]2(CCCOc3ccccc3)CCC1CC2)C(O)(c1cccs1)c1cccs1 [Aclidinium Bromide] | 1.23 | 1.02 | 0.871 | 0.952
12 | CN[C@@H]1C[C@H]2O[C@@](C)([C@@H]1OC)n1c3ccccc3c3c4c(c5c6ccccc6n2c5c31)C(=O)NC4 [Staurosporine] | 0.092 | 0.066 | 0.0336 | 0.0269
13 | O=C1CCC[C@@H]2[C@H]3CCCN4CCC[C@@H](CN12)[C@@H]34 [(+)-Matrine] | 0.865 | 1.03 | 0.795 | 1
14 | Cc1cccc(C)c1NC1=NCCCS1 [Xylazine HCl] | 0.893 | 1.25 | 0.802 | 1.11
15 | O=C(Oc1ccc([N+](=O)[O-])cc1)N1CCC(C(O)(c2ccc3c(c2)OCO3)c2ccc3c(c2)OCO3)CC1 | 0.783 | 1.08 | 0.68 | 1.09
16 | C[C@@H]1CC[C@H]2[C@@H](C)C(=O)O[C@@H]3O[C@@]4(C)CC[C@@H]1[C@]32OO4 [Artemisinin] | 0.798 | 0.942 | 0.722 | 0.857
17 | Cc1c(Cl)c(OCC(=O)N2CCN(C)CC2)nc2sc(C(=O)NC3CC3)c(N)c12 | 0.691 | 1 | 0.801 | 0.737
18 | C/C=C(\C)C(=O)N[C@@H](c1ccccc1)[C@@H](O)C(=O)O[C@H]1C[C@@]2(O)[C@@H](OC(=O)c3ccccc3)[C@@H]3[C@]4(OC(C)=O)CO[C@@H]4C[C@H](O)[C@@]3(C)C(=O)[C@H](OC(C)=O)C(=C1C)C2(C)C [Cephalomannine] | 0.16 | 0.192 | 0.184 | 0.194
19 | CCC(COC(=O)c1cc(OC)c(OC)c(OC)c1)(c1ccccc1)N(C)C (centres undefined) [Trimebutine] | 0.973 | 1.04 | 0.853 | 0.994
20 | NCCc1c[nH]c2ccc(O)cc12 [Serotonin HCl] | 0.85 | 1 | 0.903 | 0.986
21 | COc1ccc(C[C@H]2NC[C@H](O)[C@H]2OC(C)=O)cc1 [Anisomycin] | 0.109 | 0.0785 | 0.118 | 0.0319
22 | COc1ccc2c(c1)/C(=C/c1cnc[nH]1)C(=O)N2 | 1.01 | 0.927 | 0.454 | 0.378
23 | C[C@@]12N[C@@H](Cc3ccccc31)c1ccccc12 [(-)-MK 801 Maleate] | 1.15 | 1.15 | 0.771 | 1.01
24 | Cc1cccc([C@H](C)c2c[nH]cn2)c1C [Dexmedetomidine] | 1.06 | 1.23 | 0.8 | 1.05
25 | C#C[C@]1(O)C=C[C@H]2[C@@H]3CCC4=CC(=O)CC[C@@H]4[C@H]3CC[C@@]21CC [Gestodene] | 1.13 | 1.04 | 0.861 | 0.945
26 | NCC(=O)O.[C-]#[O+].[C-]#[O+].[C-]#[O+].[Cl][Ru] | 0.755 | 1.02 | 0.821 | 0.739
